{"source": "PubChem BioAssay AID540317", "about": "(National Center for Advancing Translational Sciences (NCATS), 2011)", "note": "“And” between values parts separate entries of the source, which are not always exact repeats. Identical values can stand only once. About 2,200 (0.56%) of roughly 390,000 compounds were called active. The shares of active, inactive and inconclusive entries below differ from those in the screen. Calls follow the shape of the dose curve; as a rule, active = well fitted inhibition curve with a large enough effect; inconclusive = small, poorly fitted or top-dose-only effect; inactive = no such curve, though single readings can be large or run the other way. A potency beside an inconclusive call is a rough fit, not a confirmed value. Potency is read from the fitted curve at half-maximal effect; tags tell the direction and shape of the fitted curve."}
{"target": "Chromobox protein homolog 1 (Homo sapiens) (UniProt P83916)", "sequence (P83916 whole entry, looked up)": "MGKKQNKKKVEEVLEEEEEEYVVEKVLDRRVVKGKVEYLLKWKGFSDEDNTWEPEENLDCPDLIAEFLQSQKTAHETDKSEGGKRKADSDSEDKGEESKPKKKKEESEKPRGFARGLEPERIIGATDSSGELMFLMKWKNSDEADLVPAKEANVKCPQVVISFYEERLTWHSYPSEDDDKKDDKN", "assay": "HTS for Inhibitors of HP1-beta Chromodomain Interactions with Methylated Histone Tails; also: nearly all actives have a fitted effect of over 70% in size", "conditions": "AlphaScreen HP1-beta / biotin-H3K9me3 peptide binding; series mostly up to 114 µM", "summary_of_the_method": "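HP1-beta protein (50 nM final) preincubated 30 min at room temperature with biotinylated H3(1-18)K9me3 peptide (50 nM) in PBS pH 7.4, 0.01% Tween-20, then compound added for 30 min. AlphaScreen streptavidin donor/nickel chelate acceptor beads (10 ug/mL final), 30 min dark, luminescence read.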"}
{"smiles": "Cc1cccc(CN2CCN(Cc3ccc(Cl)cc3)CC2)c1", "Potency": "inconclusive: 17.8 µM [inhibitor, full curve]"}
{"smiles": "COc1cccc2c1C(=O)c1c(O)c3c(c(O)c1C2=O)CC(O)(C(C)=NO)CC3OC1CC(N)C(O)C(C)O1", "note": "(stereo unspecified)", "Potency": "inconclusive: 50.1 µM [inhibitor, partial curve, poor fit]"}
{"smiles": "O=c1[nH]c(O)c(N=Nc2cc([N+](=O)[O-])ccc2O)c(=O)[nH]1", "Potency": "inconclusive: 50.1 µM [inhibitor, partial curve]"}
{"smiles": "S=C1Nc2ccccc2Sc2ccccc21", "Potency": "inconclusive: 3.55 µM [inhibitor, full curve, poor fit]"}
{"smiles": "O=C(COc1ccc2ccccc2c1)N1CCN(Cc2c[nH]c3ccccc23)CC1", "Potency": "inconclusive: 31.6 µM [inhibitor, full curve]"}
{"smiles": "COc1ccccc1CNCC(=O)Nc1cc(S(=O)(=O)N2CCCCC2)ccc1C", "Potency": "inconclusive: 17.8 µM [inhibitor, full curve]"}
{"smiles": "Cc1ccccc1-c1ccc2n1Cc1cnnn1-c1ccccc1-2", "Potency": "inconclusive: 50.1 µM [inhibitor, partial curve]"}
{"smiles": "CN1CCN(C(=S)SCC(=O)Nc2ccc(Cl)cc2C(=O)c2ccccc2)CC1", "Potency": "inconclusive: 50.1 µM [inhibitor, partial curve, poor fit]"}
{"smiles": "O=C(Nc1ccc(F)cc1)c1c(O)c2c(n(Cc3ccccc3)c1=O)CCCC2", "Potency": "inactive"}
{"smiles": "COc1cc(O)c(C(=O)O)c(-c2cc(O)c(O)cc2C)c1", "Potency": "inconclusive: 22.4 µM [inhibitor, full curve]"}
{"smiles": "CN1c2ccc([N+](=O)[O-])cc2CC2(C(=O)NC(=O)N(c3ccc(Br)cc3)C2=O)C1c1ccccc1", "note": "(stereo unspecified)", "Potency": "inconclusive: 28.2 µM [inhibitor, partial curve, poor fit]"}
{"smiles": "Cc1[nH]c2ccc(OCc3ccccc3)cc2c1CCN", "Potency": "inconclusive: 20 µM [inhibitor, full curve]"}
{"smiles": "Cc1ccc(-n2nc(C)c3c2NC(=O)CSC3c2ccc(O)cc2)cc1Cl", "note": "(stereo unspecified)", "Potency": "inconclusive: 89.1 µM [inhibitor, single point]"}
{"smiles": "COc1ccc(C(=O)C2CCCN(Cc3ccon3)C2)c(OC)c1", "note": "(stereo unspecified)", "Potency": "inactive"}
{"smiles": "COC(=O)CSc1n[nH]c(=S)s1", "Potency": "active: 28.2 µM"}
{"smiles": "O=C(Cc1ccccc1[N+](=O)[O-])N1CCN(Cc2ccc3c(c2)OCO3)CC1", "Potency": "inactive"}
{"smiles": "COc1ccccc1C(=O)Nc1ccc2nc(SCC(=O)N3CCCc4ccccc43)sc2c1", "Potency": "inactive"}
{"smiles": "CNCCc1ccc(O)c(O)c1", "Potency": "inconclusive: 12.6 µM [inhibitor, full curve]"}
{"smiles": "COc1ccc(CN2CCN(c3ccccc3F)CC2)cc1O", "Potency": "inconclusive: 50.1 µM [inhibitor, partial curve]"}
{"smiles": "O=C(Cc1ccc(Br)cc1)N1CCN(Cc2ccccc2)CC1", "Potency": "inactive"}
{"smiles": "CCOc1ccccc1CN(CCc1ccc2c(c1)OCO2)Cc1ccc(CC)cc1", "Potency": "inconclusive: 25.1 µM [inhibitor, partial curve]"}
{"smiles": "Cc1nn(CCC#N)c2c1P(=S)(N1CCCC1)OC(c1ccc(F)cc1)=N2", "note": "(stereo unspecified)", "Potency": "active: 14.1 µM"}
{"smiles": "Cn1ccnc1P(=S)(c1nccn1C)N1CCOCC1", "Potency": "inconclusive: 22.4 µM [inhibitor, partial curve]"}
{"smiles": "Cc1cc(=O)oc2c1c(C)nn2-c1nn[nH]n1", "Potency": "inconclusive: 7.94 µM [inhibitor, full curve]"}
{"smiles": "COc1ccc(OC)c(N2C(=O)NC(=O)/C(=C/c3ccc([N+](=O)[O-])s3)C2=O)c1", "Potency": "active: 31.6 µM"}
{"smiles": "CCOC(=O)C1CCN(Cc2c(F)cccc2Cl)CC1", "Potency": "inconclusive: 50.1 µM [inhibitor, partial curve, poor fit]"}
{"smiles": "COc1ccc(C(=O)C(C)(C)NO)cc1", "Potency": "inconclusive: 89.1 µM [inhibitor, single point]"}
{"smiles": "CC(C)[N+](C)(CCC(C(N)=O)(c1ccccc1)c1ccccc1)C(C)C", "Potency": "inconclusive: 39.8 µM [inhibitor, partial curve, poor fit]"}
{"smiles": "CCN(CC)C(=O)CN1CCN(c2ccccc2F)CC1", "Potency": "inconclusive: 70.8 µM [inhibitor, partial curve]"}
{"smiles": "COc1cc(-c2nc3ccc(Cl)cn3c2Nc2ccc3c(c2)OCCO3)ccc1O", "Potency": "inconclusive: 22.4 µM [inhibitor, partial curve, poor fit]"}
{"smiles": "O=C1NC(=O)N(c2ccccc2)C(=O)/C1=C\\C=C\\c1ccccc1", "Potency": "inconclusive: 11.2 µM [inhibitor, full curve]"}
{"smiles": "C#C[C@]1(O)CC[C@H]2[C@@H]3CCC4=CC(=O)CC[C@]4(C)[C@H]3CC[C@@]21C", "Potency": "inactive"}
{"smiles": "O=[N+]([O-])c1ccc(NCc2ccccc2)c2nonc12", "Potency": "inactive"}
{"smiles": "CN1C(=O)C(=Cc2ccc(Sc3ccccc3)o2)C(=O)N(C)C1=S", "Potency": "inconclusive: 12.6 µM [inhibitor, full curve]"}
{"smiles": "CCOC(=O)c1ccc(NC(=O)c2c(O)[nH]c(=O)[nH]c2=O)cc1", "Potency": "inactive"}
{"smiles": "CCN(CC)c1ccc(/C=N/c2sc3c(c2C#N)C2CCN3CC2)c(O)c1", "Potency": "inconclusive: 28.2 µM [inhibitor, partial curve]"}
{"smiles": "C[N+](C)(C)CC(=O)O", "Potency": "inactive"}
{"smiles": "O=c1[nH]c2ccccc2n1CCCN1CCC(n2c(=O)[nH]c3cc(Cl)ccc32)CC1", "Potency": "inconclusive: 39.8 µM [inhibitor, partial curve]"}
{"smiles": "CN1CCN(c2cc(N3CCCC3)c([N+](=O)[O-])cc2F)CC1", "Potency": "inconclusive: 79.4 µM [inhibitor, partial curve, poor fit]"}
{"smiles": "CN(C)c1ccc(/C=C/c2cc[n+](C)c3ccccc23)cc1", "Potency": "active: 44.7 µM"}
{"smiles": "COc1ccc(/C=C2/C(=O)NC(=S)N(C3CC3)C2=O)cc1CN1C(=O)c2ccccc2C1=O", "Potency": "inconclusive: 50.1 µM [inhibitor, partial curve, poor fit]"}
{"smiles": "CC1N(C)c2cc(NC(=O)c3ccco3)c(P(=O)(Nc3ccc([N+](=O)[O-])cc3)N3CCOCC3)cc2C1(C)C", "note": "(stereo unspecified)", "Potency": "inconclusive: 50.1 µM [inhibitor, partial curve]"}
{"smiles": "O=C(COc1ccccc1)N1CCN(CC2CC=CCC2)CC1", "note": "(stereo unspecified)", "Potency": "inconclusive: 44.7 µM [inhibitor, partial curve]"}
{"smiles": "CCOc1cc2c(cc1OCC)-n1cccc1C(c1ccc(OC(F)F)cc1)NC2", "note": "(stereo unspecified)", "Potency": "inconclusive: 39.8 µM [inhibitor, partial curve, poor fit]"}
{"smiles": "CCc1ccccc1N1C(=O)/C(=C/c2ccc(N3CCN(C)CC3)o2)C(=O)NC1=S", "Potency": "inconclusive: 50.1 µM [inhibitor, partial curve, poor fit]"}
{"smiles": "COC(=O)c1c(NC(=O)C2CC=CCC2C(=O)O)sc2c1CCCCC2", "note": "(stereo unspecified)", "Potency": "inconclusive: 50.1 µM [inhibitor, partial curve, poor fit]"}
{"smiles": "CCC(CC)N1CCN(C(=O)Cc2ccccc2)CC1", "Potency": "inconclusive: 56.2 µM [inhibitor, partial curve, poor fit]"}
{"smiles": "COc1ccc(CN2CCCC(C(=O)c3ccccc3SC)C2)cc1O", "note": "(stereo unspecified)", "Potency": "inactive"}
{"smiles": "Oc1ccc(C[C@H]2NCCc3cc(O)c(O)cc32)cc1O", "Potency": "active: 79.4 µM"}
{"smiles": "C/C(CC(c1ccccc1)c1c(O)c2ccccc2oc1=O)=N\\Nc1ccc([N+](=O)[O-])cc1[N+](=O)[O-]", "note": "(stereo unspecified)", "Potency": "inconclusive: 25.1 µM [inhibitor, partial curve]"}
{"smiles": "CCN1CCN(c2ccc([N+](=O)[O-])cc2C=C2C(=O)NC(=O)NC2=O)CC1", "Potency": "inconclusive: 44.7 µM [inhibitor, partial curve]"}
{"smiles": "COc1cc(CN2CCSCC2)cc(OC)c1OC", "Potency": "inconclusive: 17.8 µM [inhibitor, full curve]"}
{"smiles": "CC1=C(O)C(=O)C=C2C1=CC=C1C2(C)CCC2(C)C3CC(C)(C(=O)O)CCC3(C)CCC12C", "note": "(stereo unspecified)", "Potency": "inconclusive: 20 µM [inhibitor, full curve, poor fit]"}
{"smiles": "CCOc1cc2c(cc1OCC)-n1cccc1C(c1cc(C)c(OC)cc1C)NC2", "note": "(stereo unspecified)", "Potency": "inconclusive: 39.8 µM [inhibitor, partial curve, poor fit]"}
{"smiles": "O=C(Nc1ccc2oc(-c3cccnc3)nc2c1)c1ccc(-c2cccc(Cl)c2)o1", "Potency": "inconclusive: 70.8 µM [inhibitor, partial curve, poor fit]"}
{"smiles": "Cc1c(N=Nc2c(O)n(-c3ccc(Br)cc3)c(=O)[nH]c2=O)c(=O)n(-c2ccccc2)n1C", "Potency": "inactive"}
{"smiles": "Oc1c(Br)cc(-c2ccccc2)cc1Br", "Potency": "inconclusive: 79.4 µM [inhibitor, partial curve, poor fit]"}
{"smiles": "O=C(Cc1ccc(S(=O)(=O)N2CCCC2)s1)N1CCN(c2ccc(F)cc2)CC1", "Potency": "inconclusive: 56.2 µM [inhibitor, partial curve, poor fit]"}
{"smiles": "Cn1nc(C(F)(F)F)c(-c2ccccc2)c1N", "Potency": "inconclusive: 89.1 µM [inhibitor, single point]"}
{"smiles": "Clc1cccc(CNCCc2c[nH]c3ccccc23)c1", "Potency": "inconclusive: 56.2 µM [inhibitor, partial curve, poor fit]"}
{"smiles": "O=C1NC(=O)N(CCC2=CCCCC2)C(=O)/C1=C/c1ccc(O)cc1", "Potency": "inactive"}
{"smiles": "CC(Cc1ccccc1)NCC(=O)Nc1cc(N(C)C)nc2ccccc12", "note": "(stereo unspecified)", "Potency": "inconclusive: 15.8 µM [inhibitor, full curve, poor fit]"}
{"smiles": "C[C@H]1CC[C@H]2NCCN[C@H]2C1", "Potency": "inactive"}
{"smiles": "O=[N+]([O-])c1ccc(N2CCCC2)cc1N/N=C1\\CN2CCC1CC2", "Potency": "inconclusive: 20 µM [inhibitor, partial curve, poor fit]"}
{"smiles": "CCc1ccccc1NC(=O)c1cccn(Cc2ccccc2F)c1=O", "Potency": "inactive"}
{"smiles": "CSc1ccc(CN2CCN(C(=O)COc3ccc(C)cc3)CC2)cc1", "Potency": "inconclusive: 15.8 µM [inhibitor, partial curve, poor fit] and inconclusive: 50.1 µM [inhibitor, partial curve, poor fit]"}
